Measured values: PubChem BioAssay AID588855 (National Center for Advancing Translational Sciences (NCATS), 2011)
Where “and” joins values, the source holds several entries; their conditions need not be identical. Identical values can stand only once. In all, about 410,000 compounds went through this assay and about 5,000 (1.2%) were called active. Inconclusive means that the source gave no clear call. Such entries were picked first, then a sample of the others. Calls follow the shape of the dose curve; as a rule, active = well fitted inhibition curve with a large enough effect; inconclusive = small, poorly fitted or top-dose-only effect; inactive = no such curve, though single readings can be large or run the other way. Potencies of inconclusive entries are doubtful fits and often do not repeat.

test: qHTS for Inhibitors of TGF-b; settings: HepG2 CAGA-GFP TGF-b/SMAD3 reporter, GFP fluorescence, 18 h, TGF-beta stimulated, 500 pg/mL final; series mostly up to 46.1 µM; activity, negative = inhibition: at the top concentration; also: nearly all actives have a fitted effect of over 65% in size
How it was run: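 Cell-based qHTS in HEPG2 carrying a CAGA-GFP Smad reporter; compounds added before 500 pg/mL final TGF-beta, 18 h incubation at 37 degrees C, GFP fluorescence quantified per cell by imaging cytometry.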
% is scaled to controls: 0 for no effect and ±100 for the full control effect; potency is read from the fitted curve at half-maximal effect; tags tell the direction and shape of the fitted curve.

SMILES	Potency	activity, negative = inhibition
N#Cc1ccccc1NC(=O)C1SC(=Nc2ccccc2)C(C(=O)Nc2ccc(Cl)cc2)=C1N (centres undefined)	inconclusive: 35.5 µM [inhibitor, single point]	
Cc1c(C)n(C)c2ccc(C(=O)NCCCN3CCN(c4ccc(F)cc4)CC3)cc12	inconclusive: 28.2 µM [inhibitor, single point]	
CC(=O)C1=NN(c2ccccc2)C(c2cccs2)N1c1ccc(N(C)C)cc1 (centres undefined)	inconclusive: 11.2 µM [inhibitor, partial curve, poor fit]	
CNC(=O)C1CCC(Cn2c(=O)c3sccc3n(CC(=O)NCc3ccc(F)cc3)c2=O)CC1 (centres undefined)	inconclusive: 5.62 µM [inhibitor, single point]	
CC(=O)N1CCN(S(=O)(=O)c2cccc(C(=O)NCCC3=CCCCC3)c2)CC1		inactive: 1.29%
O=C(C1CCCN(S(=O)(=O)c2ccc(Br)s2)C1)N1CCN(c2ccccc2)CC1 (centres undefined)	inconclusive: 35.5 µM [inhibitor, single point] and inconclusive: 20 µM [inhibitor, partial curve, poor fit]	
COc1cc(NC(=O)c2cnc(N)s2)cc(C(=O)Nc2cccc(C(F)(F)F)c2)c1	inconclusive: 35.5 µM [inhibitor, single point] and inconclusive: 15.8 µM [inhibitor, partial curve, poor fit]	
CC12CCC(=O)N1C(C(=O)Nc1nc(-c3cc(F)ccc3F)cs1)CS2 (centres undefined)		inactive: -13.7%
O=c1[nH]c(O)c(/C=C2\C=Nc3ccc(Br)cc32)[nH]1	inconclusive: 35.5 µM [inhibitor, single point]	
Cc1[nH]n(-c2ccccc2)c(=O)c1CCOC(=O)c1ccc(C(F)(F)F)cc1	inconclusive: 25.1 µM [inhibitor, single point]	
Cc1ccc2nc(SC(C)C(=O)NC3CCCc4ccccc43)[nH]c2c1 (centres undefined)	inconclusive: 15.8 µM [inhibitor, partial curve, poor fit]	
O=C1CCC(O)CCN1CCSc1ccccc1 (centres undefined)	inconclusive: 35.5 µM [inhibitor, single point]	
CCOC(=O)N1CCN(C(=O)c2ccc(N(C)S(C)(=O)=O)cc2)CC1	inconclusive: 35.5 µM [inhibitor, single point]	
CC1CCC(NC(=O)CCNC(=O)c2ccc(Br)cc2)CC1 (centres undefined)	inconclusive: 5.62 µM [inhibitor, single point]	
CS(=O)(=O)c1ccc(C(=O)OCC(=O)N2CCc3ccccc32)cc1[N+](=O)[O-]	inconclusive: 3.55 µM [inhibitor, single point]	
COc1ccc(S(=O)(=O)Nc2cccc3c2O[C@H](CN(C)S(=O)(=O)c2ccc(Cl)cc2)[C@H](C)CN([C@H](C)CO)C3=O)cc1	inconclusive: 25.1 µM [inhibitor, partial curve, poor fit]	
CCCCOC(=O)C1=C(C)Nc2nnnn2C1c1ccccc1Cl (centres undefined)		inactive: -13.9%
Cc1ccc(NC(=O)c2cccnc2)cc1S(=O)(=O)N1CCOCC1		inactive: -5.01%
CCc1ccc(CN(C(=O)c2oc3ccccc3c2C)C2CCS(=O)(=O)C2)cc1 (centres undefined)	inconclusive: 35.5 µM [inhibitor, single point]	
Cc1ccc(CS(=O)(=O)c2ncc(Cl)c(C(=O)Nc3nc4ccc(F)cc4s3)n2)cc1	inconclusive: 5.62 µM [inhibitor, single point]	
Cc1cc(OCC(=O)OCC(=O)N2CCCc3ccccc32)ccc1Cl		inactive: -2.99%
O=C(N/N=C/c1ccccn1)c1sc2ccccc2c1Cl	inconclusive: 17.8 µM [inhibitor, single point]	

SMILES	Potency	activity, negative = inhibition
Cc1ccc(-c2nc3c(c(SCC(=O)Nc4ccccc4Cl)n2)Cc2c(CO)cnc(C)c2O3)cc1		inactive: 12.3%
COc1ccc(-c2ccc(CN3C(C(C)C)C(=O)N(Cc4cn(Cc5ccco5)nn4)CCS3(=O)=O)cc2)cc1 (centres undefined)	inconclusive: 10 µM [inhibitor, partial curve]	
Cc1ccc(/C=N/c2sc3c(c2C(N)=O)CCCC3)o1		inactive: -25.3%
C1CCCCCC(NCCN2CCNCC2)CCCCC1	inconclusive: 20 µM [inhibitor, single point]	
Cc1ccc(C)c(N2CN(CCC3=CCCCC3)CNC2=S)c1	inconclusive: 35.5 µM [inhibitor, single point]	
O=C(CCOc1ccccc1)N1CCCC(Nc2ccccc2)C1 (centres undefined)		inactive: -1.18%
CCN(CC)c1ccc(/C=C2\C(=O)N(c3nnc(C)c(=O)[nH]3)N=C2C)cc1	inconclusive: 35.5 µM [inhibitor, single point]	
CC(=O)Nc1sc2c(c1CN1CCCC1)CCCC2		inactive: -8.59%
CN1CCN(C(c2ccccn2)c2cc(Cl)c3cccnc3c2O)CC1 (centres undefined)	inconclusive: 0.501 µM [inhibitor, full curve, poor fit]	
CCOc1cc(CNc2ccc3c(c2)OCCO3)cc(Br)c1OCC	inconclusive: 35.5 µM [inhibitor, single point]	
COc1nc(Nc2ccc(O)cc2)nc(OC(C(F)(F)F)C(F)(F)F)n1	inconclusive: 35.5 µM [inhibitor, partial curve, poor fit]	
CCCCN(C)C(=O)C1CCC(CNS(=O)(=O)c2ccc(Cl)cc2)CC1 (centres undefined)	inconclusive: 10 µM [inhibitor, partial curve, poor fit]	
O=C(C1=C[C@H](c2ccccc2)C[C@H](OCCCCO)O1)N1CCN(Cc2ccc3c(c2)OCO3)CC1	inconclusive: 11.2 µM [inhibitor, single point]	
CCC(Oc1ccccc1)C(=O)Nc1cc(-c2ccccc2OC)nn1-c1ccccc1 (centres undefined)	inconclusive: 0.562 µM [inhibitor, partial curve, poor fit]	
O=C1[C@H](Cc2ccccc2)NCC=CC[C@@H](c2ccc(Cl)cc2)N1Cc1ccc(Cl)cc1	inconclusive: 20 µM [inhibitor, partial curve, poor fit]	
O=C(NCc1ccc(Cl)c(Cl)c1)c1cc(C2CCCCN2C(=O)OCCF)on1 (centres undefined)	inconclusive: 17.8 µM [inhibitor, partial curve, poor fit]	
CC(=O)Nc1ccccc1/C=C/c1ccc2c(C)ccc(O)c2n1		inactive: -13.2%
Cc1cc(SCC(=O)NCCC2=CCCCC2)nc2ccccc12		inactive: -21.3%
Cc1nc2nncn2c(NCc2ccc(F)cc2)c1C	inconclusive: 7.08 µM [inhibitor, partial curve, poor fit]	
Cc1ccc(NC(=O)CCS(=O)(=O)c2cc3c4c(c2)CCN4C(=O)CC3)c(C)c1	inconclusive: 8.91 µM [inhibitor, partial curve, poor fit]	
COc1ccc(CNC(=O)CN(Cc2ccccc2)S(=O)(=O)c2ccc(Cl)cc2)cc1	inconclusive: 14.1 µM [inhibitor, single point]	
CCc1c(C)nc(SC(C(=O)O)c2ccccc2)c(C#N)c1C (centres undefined)	inconclusive: 5.62 µM [inhibitor, single point]	

SMILES	Potency	activity, negative = inhibition
O=c1cc(-c2ccccc2)oc2c1CCCC2		inactive: 0.97%
NC(=O)[C@@H]1CCCN1C(=O)c1ccc2nc(Cc3cccc(Cl)c3)oc2c1		inactive: 0%
Cc1ccc(S(=O)(=O)N2CCN(C(=O)CN3C(=O)NC(C)(c4ccc(Cl)cc4)C3=O)CC2)c(C)c1 (centres undefined)	inconclusive: 11.2 µM [inhibitor, partial curve]	
Cc1ccc(NS(=O)(=O)c2ccc3c(c2)CCCN3C(=O)C2CCC2)cc1Cl	inconclusive: 35.5 µM [inhibitor, partial curve, poor fit]	
COc1cc(SC)ccc1C(=O)Nc1ncc(C)s1	inconclusive: 11.2 µM [inhibitor, partial curve, poor fit]	
O=S(=O)(Nc1cccc(-n2cnnn2)c1)c1cc(Cl)ccc1Cl		inactive: 1.55%
CCCCN(C(=O)CSc1nnc(Nc2ccc(C)c(C)c2)s1)c1c(N)n(Cc2ccccc2)c(=O)[nH]c1=O	inconclusive: 6.31 µM [inhibitor, full curve, poor fit]	
c1ccc(CN2CC[C@@H](Nc3nccn4ccnc34)C2)cc1		inactive: -4.09%
CCOC(=O)c1ccc2c(c1)nc(SCc1cn3ccsc3n1)n2CC	inconclusive: 20 µM [inhibitor, single point]	
O=[N+]([O-])c1cc(C(F)(F)F)cc([N+](=O)[O-])c1NCCNC(=S)Nc1ccc(Cl)c(Cl)c1	active: 11.2 µM	
CC(=O)c1c(C)[nH]c(C(=O)OCC(=O)NCCC2=CCCCC2)c1C	inconclusive: 20 µM [inhibitor, partial curve, poor fit]	
COc1ccc(-n2c(-c3ccc(C(C)(C)C)cc3)n[nH]c2=S)c(OC)c1		inactive: -10.3%
CCOc1cc(/C=C2/C(=O)N(c3ccccc3)N=C2C)ccc1OC(=O)c1cccs1	inconclusive: 25.1 µM [inhibitor, partial curve, poor fit]	
S=C(NCc1ccccc1Cl)NC1CCCC1		inactive: -13.9%
COc1cc(C(=O)N[C@H](C(=O)NC(C)C23CC4CC(CC(C4)C2)C3)C(C)C)cc(OC)c1OC (some centres undefined)	inconclusive: 5.62 µM [inhibitor, single point]	
CCCCSc1nc(C)cc(SCC(=O)N/N=C/c2cccc(OC)c2O)n1	active: 7.94 µM	
CCN(CC)CCNC(=O)Cc1nn(Cc2ccccc2)c(=O)c2ccccc12	inconclusive: 3.55 µM [inhibitor, partial curve, poor fit]	
O=C1CCC(C(=O)OCC(=O)c2ccccc2)N1 (centres undefined)	inconclusive: 2.82 µM [inhibitor, single point]	
O=C(O)CN1C(=O)C(=O)N(Cc2ccccc2F)C1=O		inactive: -0.271%
COc1ccc(/C=N/OCC(=O)Nc2nc3ccccc3s2)cc1	inconclusive: 6.31 µM [inhibitor, single point]	
